Laboratory results from PubChem BioAssay (NCATS).
Several values for one entry are separate records, joined by “and”; a condition that tells them apart may be missing. Equal entries are not always repeated. The shares of active, inactive and inconclusive entries below differ from those in the screen. A potency beside an inconclusive call is a rough fit, not a confirmed value. Activity calls are given as the source filed them. The call rests on the fitted dose curve; in most records, active means well fitted curve in the direction sought with a large enough effect; inconclusive means small, poorly fitted or top-dose-only effect, or another doubt; inactive means no such curve, though single readings can be large; an effect the other way counts as inactive or inconclusive.

assay: qHTS of pediatric cancer cell lines to identify multiple opportunities for drug repurposing: Primary screen for DAOY cells (AID 1347090); conditions: DAOY medulloblastoma viability, CellTiter-Glo luminescence, 48 h; series mostly up to 46 µM; further: nearly all actives have a fitted effect of over 55% in size
In short: (§1)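 Eight- or eleven-point concentration series, 48 h treatment at 37 degrees C in growth media; readout CellTiter-Glo luminescence. Potency and efficacy were taken from the concentration-response curves.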
Potency means the concentration at half of the fitted maximal effect; tags describe the fitted curve by direction and shape.

| Structure (SMILES) | Potency |
| --- | --- |
| CCOC(=O)C1(c2ccccc2)CCN(CCC(C#N)(c2ccccc2)c2ccccc2)CC1 | inconclusive: 21.1 µM [cytotoxic, single point] |
| CC(C)N[C@@H]1CCn2c(=O)[nH]c3cccc(c32)[C@@H]1O | active: 1.18 µM |
| O=C(Oc1ccc([N+](=O)[O-])cc1)N1CCN(Cc2cccc(Oc3ccccc3)c2)CC1 | inconclusive: 14.8 µM [cytotoxic, partial curve] |
| C[C@@H]1C[C@@H]([C@H](O)CC2CC(=O)NC(=O)C2)C(=O)[C@@H](C)C1 | active: 1.06 µM and active: 1.18 µM |
| CCCCCC[C@H]1C(=O)O[C@H](C)[C@H](NC(=O)c2cccc(NC=O)c2O)C(=O)O[C@@H](C)[C@@H]1OC(=O)CC(C)C | active: 0.0372 µM |
| C=CCC1=C(C)C(OC(=O)C2C(C=C(C)C)C2(C)C)CC1=O (stereo unspecified) | inconclusive: 24.3 µM [cytotoxic, partial curve, poor fit] |
| CCOC(=O)c1c(C(C#N)=CN)c2ccc(Cl)c(Cl)c2n1C | inconclusive: 23.5 µM [cytotoxic, partial curve, poor fit] |
| Cc1ccccc1-n1c(Cn2cnc3c(N)ncnc32)nc2cccc(C)c2c1=O | active: 1.48 µM |
| C[C@@H]1[C@@H](C(=O)C[C@H]2O[C@@H]3O[C@]4(C)CC[C@@H]5[C@H](C)CC[C@@H]([C@H]2C)[C@@]35OO4)O[C@@H]2O[C@]3(C)CC[C@H]4[C@H](C)CC[C@@H]1[C@@]24OO3 | inconclusive: 1.87 µM [cytotoxic, partial curve, poor fit] |
| CCNC(=O)CC1N=C(c2ccc(Cl)cc2)c2cc(OC)ccc2-n2c(C)nnc21 (stereo unspecified) | inconclusive: 29.6 µM [cytotoxic, single point] |

assay: qHTS of pediatric cancer cell lines to identify multiple opportunities for drug repurposing: Primary screen for SJ-GBM2 cells (AID 1347091); conditions: SJ-GBM2 viability, CellTiter-Glo luminescence, 48 h; series mostly up to 46 µM
In short: as §1

| Structure (SMILES) | Potency |
| --- | --- |
| CCOC(=O)C1(c2ccccc2)CCN(CCC(C#N)(c2ccccc2)c2ccccc2)CC1 | inconclusive: 33.5 µM [cytotoxic, single point] |
| CCNC(=O)C[C@@H]1N=C(c2ccc(Cl)cc2)c2cc(OC)ccc2-n2c(C)nnc21 | active: 5.9 µM |
| CCOC(=O)c1c(C(C#N)=CN)c2ccc(Cl)c(Cl)c2n1C | inconclusive: 37.2 µM [cytotoxic, single point] |
| Cc1ccccc1-n1c(Cn2cnc3c(N)ncnc32)nc2cccc(C)c2c1=O | active: 0.187 µM |
| C[C@@H]1[C@@H](C(=O)C[C@H]2O[C@@H]3O[C@]4(C)CC[C@@H]5[C@H](C)CC[C@@H]([C@H]2C)[C@@]35OO4)O[C@@H]2O[C@]3(C)CC[C@H]4[C@H](C)CC[C@@H]1[C@@]24OO3 | inconclusive: 0.469 µM [cytotoxic, full curve] |
| CC[C@H]1C=CC=CC[C@@H](C)[C@H](O)[C@@](C)(O)C(=O)[C@@H](C)[C@H](O)[C@@H](C)C(=O)[C@@H](C)[C@H](O)[C@@H](C)C=CC(=O)O[C@@H]2[C@@H](C)[C@H](CC1)O[C@]1(CC[C@H](C)[C@H](C[C@@H](C)O)O1)[C@H]2C | active: 0.264 µM |
